# In the supplement of paper PMC8728848:
# The list shows a part of the results.
# Tests used:
# Test in all cases: glycan array binding signal (z-score within array); higher = stronger binding
# Details in all cases: glycan notation: IUPAC condensed, linker removed
# [1] = molecular target: Fuc(a1-2)Gal
# In short: (§1)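 Arrays were curated from the Consortium for Functional Glycomics database, 3228 in total, and kept only where the protein sequence was available. Binding is expressed as a within-array Z-score. This score was averaged across arrays of the same protein sequence at different concentrations or buffers and across linkers, and negative values can be read as non-binding.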
# [2] = molecular target: Fuc(a1-2)Gal(b1-3)GalNAc
# In short: as §1
# [3] = molecular target: Fuc(a1-2)Gal(b1-3)GalNAc(a1-3)[Fuc(a1-2)]Gal(b1-4)Glc
# In short: as §1
# [4] = molecular target: Fuc(a1-2)Gal(b1-3)GalNAc(a1-3)[Fuc(a1-2)]Gal(b1-4)GlcNAc
# In short: as §1
# [5] = molecular target: Fuc(a1-2)Gal(b1-3)GalNAc(b1-3)Gal
# In short: as §1
# [6] = molecular target: Fuc(a1-2)Gal(b1-3)GalNAc(b1-3)Gal(a1-4)Gal(b1-4)Glc
# In short: as §1
# [7] = molecular target: Fuc(a1-2)Gal(b1-3)GalNAc(b1-4)[Neu5Ac(a2-3)]Gal(b1-4)Glc
# In short: as §1
# [8] = molecular target: Fuc(a1-2)Gal(b1-3)GlcNAc
# In short: as §1
# [9] = molecular target: Fuc(a1-2)Gal(b1-3)GlcNAc(b1-2)Man(a1-3)[Fuc(a1-2)Gal(b1-3)GlcNAc(b1-2)Man(a1-6)]Man(b1-4)GlcNAc(b1-4)GlcNAc
# In short: as §1
# [10] = molecular target: Fuc(a1-2)Gal(b1-3)GlcNAc(b1-2)Man(a1-3)[Fuc(a1-2)Gal(b1-3)GlcNAc(b1-2)Man(a1-6)]Man(b1-4)GlcNAc(b1-4)[Fuc(a1-6)]GlcNAc
# In short: as §1
# [11] = molecular target: Fuc(a1-2)Gal(b1-3)GlcNAc(b1-3)Gal(b1-4)Glc
# In short: as §1
# [12] = molecular target: Fuc(a1-2)Gal(b1-3)GlcNAc(b1-3)GalNAc
# In short: as §1
# [13] = molecular target: Fuc(a1-2)Gal(b1-3)GlcNAc(b1-3)[Fuc(a1-2)Gal(b1-3)GlcNAc(b1-6)]GalNAc
# In short: as §1
# [14] = molecular target: Fuc(a1-2)Gal(b1-3)GlcNAc(b1-3)[Gal(b1-4)GlcNAc(b1-6)]Gal(b1-4)Glc
# In short: as §1
# [15] = molecular target: Fuc(a1-2)Gal(b1-3)GlcNAc(b1-3)[Neu5Ac(a2-6)Gal(b1-4)GlcNAc(b1-6)]Gal(b1-4)Glc
# In short: as §1
# [16] = molecular target: Fuc(a1-2)Gal(b1-3)GlcNAc6S
# In short: as §1
# [17] = molecular target: Fuc(a1-2)Gal(b1-3)[Fuc(a1-4)]GlcNAc
# In short: as §1
# [18] = molecular target: Fuc(a1-2)Gal(b1-3)[Fuc(a1-4)]GlcNAc(b1-2)Man(a1-3)[Fuc(a1-2)Gal(b1-3)[Fuc(a1-4)]GlcNAc(b1-2)Man(a1-3)]Man(b1-4)GlcNAc(b1-4)GlcNAc
# In short: as §1
# [19] = molecular target: Fuc(a1-2)Gal(b1-3)[Fuc(a1-4)]GlcNAc(b1-2)Man(a1-3)[Fuc(a1-2)Gal(b1-3)[Fuc(a1-4)]GlcNAc(b1-2)Man(a1-6)]Man(b1-4)GlcNAc(b1-4)[Fuc(a1-6)]GlcNAc(b1-4)[Fuc(a1-6)]GlcNAc
# In short: as §1
# [20] = molecular target: Fuc(a1-2)Gal(b1-3)[Fuc(a1-4)]GlcNAc(b1-3)[Fuc(a1-3)[Gal(b1-4)]GlcNAc(b1-6)]Gal(b1-4)Glc
# In short: as §1
# [21] = molecular target: Fuc(a1-2)Gal(b1-3)[Fuc(a1-4)]GlcNAc(b1-3)[Gal(b1-4)GlcNAc(b1-6)]Gal(b1-4)Glc
# In short: as §1
# [22] = molecular target: Fuc(a1-2)Gal(b1-4)Glc
# In short: as §1
# [23] = molecular target: Fuc(a1-2)Gal(b1-4)Glc6S
# In short: as §1
# [24] = molecular target: Fuc(a1-2)Gal(b1-4)GlcNAc
# In short: as §1
# [25] = molecular target: Fuc(a1-2)Gal(b1-4)GlcNAc(b1-2)Man
# In short: as §1
# [26] = molecular target: Fuc(a1-2)Gal(b1-4)GlcNAc(b1-2)Man(a1-3)[Fuc(a1-2)Gal(b1-4)GlcNAc(b1-2)Man(a1-6)]Man(b1-4)GlcNAc(b1-4)GlcNAc
# In short: as §1
# [27] = molecular target: Fuc(a1-2)Gal(b1-4)GlcNAc(b1-2)Man(a1-3)[Fuc(a1-2)Gal(b1-4)GlcNAc(b1-2)Man(a1-6)]Man(b1-4)GlcNAc(b1-4)[Fuc(a1-6)]GlcNAc
# In short: as §1
# [28] = molecular target: Fuc(a1-2)Gal(b1-4)GlcNAc(b1-2)[Fuc(a1-2)Gal(b1-4)GlcNAc(b1-4)]Man(a1-3)[Fuc(a1-2)Gal(b1-4)GlcNAc(b1-2)Man(a1-6)]Man(b1-4)GlcNAc(b1-4)GlcNAc
# In short: as §1
# [29] = molecular target: Fuc(a1-2)Gal(b1-4)GlcNAc(b1-3)Gal(b1-4)GlcNAc
# In short: as §1
# [30] = molecular target: Fuc(a1-2)Gal(b1-4)GlcNAc(b1-3)Gal(b1-4)GlcNAc(b1-2)Man(a1-3)[Fuc(a1-2)Gal(b1-4)GlcNAc(b1-3)Gal(b1-4)GlcNAc(b1-2)Man(a1-6)]Man(b1-4)GlcNAc(b1-4)GlcNAc
# In short: as §1
binder,measurement,setting,value
B1567 (Bifidobacterium sp) (protein) MKFTTAKKAVALTGAVAMLVSVAACGSDSGKSSQPAQDSDVKEITVWAWEPSLTQVAKDFEKETGIKVDLKNVGTNTKEYTQLDNAIEAGSGAPDVAQVEYYAVPQYAIKGNLLDITDKTSGYKDFYTPGPWASVQFAGKVYGLPMDSGPMAFFYNKEVFDKAGVDAEQIKTWDQYYDAAKKIHALGDNYYITSDTGDAGFFDSMTWLAGAKPFQTSSDGSEVTVNLTEDKGVKTFTDFWQKLLDEGLLDTKTAGWSEDWFKGMVDGTIASLFTGAWMPANLANSAADGAGKWRVTQMPTADGSTTNSENGGSSLAVLASTKKADAAYQFIEYANHGAGVATRVAGGAFPADKASLEKDSFKNATTVKNADGQDVDYFGGQKYNEVLAQAAENVSSGYQFLPFEVKARTIFGDYFGKSYTGDQKLSDGVAAWQKALQDYGKDQGFTVK,glycan array binding signal (z-score),[1],-0.117
same,glycan array binding signal (z-score),[2],-0.135
same,glycan array binding signal (z-score),[3],-0.161
same,glycan array binding signal (z-score),[4],-0.097
same,glycan array binding signal (z-score),[5],-0.128
same,glycan array binding signal (z-score),[6],-0.037
same,glycan array binding signal (z-score),[7],-0.136
same,glycan array binding signal (z-score),[8],-0.124
same,glycan array binding signal (z-score),[9],-0.156
same,glycan array binding signal (z-score),[10],-0.103
same,glycan array binding signal (z-score),[11],-0.125
same,glycan array binding signal (z-score),[12],-0.117
same,glycan array binding signal (z-score),[13],-0.125
same,glycan array binding signal (z-score),[14],-0.135
same,glycan array binding signal (z-score),[15],-0.108
same,glycan array binding signal (z-score),[16],-0.155
same,glycan array binding signal (z-score),[17],-0.003
same,glycan array binding signal (z-score),[18],-0.058
same,glycan array binding signal (z-score),[19],-0.08
same,glycan array binding signal (z-score),[20],-0.143
same,glycan array binding signal (z-score),[21],-0.027
same,glycan array binding signal (z-score),[22],-0.094
same,glycan array binding signal (z-score),[23],-0.184
same,glycan array binding signal (z-score),[24],-0.101
same,glycan array binding signal (z-score),[25],-0.141
same,glycan array binding signal (z-score),[26],-0.116
same,glycan array binding signal (z-score),[27],-0.101
same,glycan array binding signal (z-score),[28],-0.052
same,glycan array binding signal (z-score),[29],-0.164
same,glycan array binding signal (z-score),[30],-0.015
